The text below walks through data of the supplement of paper PMC4967469.

IC50 is the fitted dose that halves viability relative to control wells, and lower means more sensitive; where the fit passes the top or lowest dose, that dose stands as a limit. AUC is the area under the same curve over the 256-fold range up to the top dose, as a fraction: 1 means no effect, lower means more sensitive. For part of these data: Where the top dose is marked as inferred, it is not printed in the source and was worked back from the curve model.

Test in all cases: Viability of human cancer cell lines after 72 h of drug (GDSC screen)
Compound in one test: C=CC(=O)Nc1cc(-n2c(=O)ccc3cnc4ccc(-c5ccc(NS(C)(=O)=O)cc5)cc4c32)ccc1C [BMX-IN-1 (QL-XII-61)]
Conditions: top dose 10 µM; top dose inferred. The procedure:
(§1)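 Human cancer cell lines in 384-well plates, medium with 10% serum, drug for 72 h over a 256-fold dose range (nine 2-fold or five 4-fold steps up to the top dose). Adherent lines were fixed and stained with the nucleic acid dye Syto60, suspension lines read with resazurin; signal relative to control wells, capped at 0 and 100%. One two-parameter sigmoid per drug and line, fitted in a mixed model over all curves with the slope shared within a line.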

Compound in the next test: C=CCNC1=C2C[C@@H](C)C[C@H](OC)[C@H](O)[C@@H](C)/C=C(\C)[C@H](OC(N)=O)[C@@H](OC)/C=C\C=C(/C)C(=O)NC(=CC1=O)C2=O [17-AAG]
Conditions: top dose 1 µM. The procedure:
as §1

Compound in a further test: CCc1cc(-c2n[nH]c(C)c2-c2ccc3c(c2)OCCO3)c(O)cc1O [CCT018159]
Conditions: top dose 10 µM; top dose inferred. The procedure: as §1

Compound in the next test: CN(C)Cc1cccc(N=C(c2ccccc2)c2c(O)[nH]c3cc(C(=O)N(C)C)ccc23)c1 [BIX02189]
The following applies: top dose 20 µM; top dose inferred. The procedure:
as §1

Compound in a further test: COC(=O)CNC(=O)C(=O)OC [Dimethyloxalylglycine]
Conditions: top dose 4000 µM; top dose inferred. The procedure:
as §1

Compound in another test: COc1cccc2cc(-c3nc([C@H]4CC[C@H](C(=O)O)CC4)n4ncnc(N)c34)[nH]c12 [OSI-027]
The following applies: top dose 20 µM. The procedure: as §1

Compound in a further test: CS(=O)(=O)c1ccc(C(=O)Nc2ccc(Cl)c(-c3ccccn3)c2)c(Cl)c1 [Vismodegib]
The following applies: top dose 10 µM; top dose inferred. The procedure: as §1

Compound in a further test: Cc1cnc(Nc2ccc(F)cc2Cl)nc1-c1c[nH]c(C(=O)N[C@H](CO)c2cccc(Cl)c2)c1 [VX-11e]
Conditions: top dose 5.12 µM; top dose inferred. The procedure:
as §1

Compound in the next test: Cc1cnc(Nc2ccc(OCCN3CCCC3)cc2)nc1Nc1cccc(S(=O)(=O)NC(C)(C)C)c1 [TG101348]
Conditions: top dose 10.24 µM. The procedure: as §1

Compound in another test: O=C(c1ccc(C(=O)N2CCC(N3CCCC3)CC2)c(Nc2ccccc2)c1)N1CCC(N2CCCC2)CC1 [UNC1215]
Conditions: top dose 1 µM; top dose inferred. The procedure:
as §1

NAMALWA (Burkitt lymphoma, suspension): the AUC with BMX-IN-1 (QL-XII-61) was 0.963; with 17-AAG, 0.965; in the test with CCT018159, 0.941; with BIX02189, 0.917; in the test with Dimethyloxalylglycine, 0.637; in the test with OSI-027 it was 0.225. For the same cell line, the AUC with Vismodegib came out at 0.957; with VX-11e, 0.899; with TG101348, 0.727; with UNC1215, 0.991. Besides, the IC50 was more than 10 µM with BMX-IN-1 (QL-XII-61); more than 1 µM with 17-AAG; more than 10 µM in the test with CCT018159; more than 20 µM with BIX02189; 559 µM with Dimethyloxalylglycine; 0.233 µM with OSI-027. The IC50 with Vismodegib was more than 10 µM; with VX-11e, 4.67 µM; in the test with TG101348, 2.49 µM; with UNC1215, more than 1 µM.

Take HCC1937 (breast, adherent): the AUC in the test with BMX-IN-1 (QL-XII-61) was found to be 0.932; with 17-AAG it was 0.674; with CCT018159 it was 0.928; with BIX02189, 0.948; in the test with Dimethyloxalylglycine it was 0.672; with OSI-027, 0.759. Moreover, the AUC in the test with Vismodegib stood at 0.974; with VX-11e, 0.985; in the test with TG101348 it was 0.885; with UNC1215 it was 0.983. Also, the IC50 is more than 10 µM with BMX-IN-1 (QL-XII-61); 0.207 µM with 17-AAG; more than 10 µM with CCT018159; more than 20 µM in the test with BIX02189; 815 µM with Dimethyloxalylglycine; 8 µM with OSI-027. Besides, the IC50 is more than 10 µM in the test with Vismodegib, more than 5.12 µM with VX-11e, more than 10.2 µM with TG101348 and more than 1 µM with UNC1215.

On to AsPC-1 (pancreas, adherent), for which the AUC with BMX-IN-1 (QL-XII-61) was 0.969; with 17-AAG, 0.649; in the test with CCT018159, 0.942; with BIX02189 it was 0.851; with Dimethyloxalylglycine it was 0.764; in the test with OSI-027, 0.832. The AUC is 0.868 with Vismodegib, 0.787 in the test with VX-11e, 0.897 in the test with TG101348 and 0.968 in the test with UNC1215. The IC50 with BMX-IN-1 (QL-XII-61) was more than 10 µM; in the test with 17-AAG, 0.217 µM; in the test with CCT018159, more than 10 µM; with BIX02189, more than 20 µM; with Dimethyloxalylglycine it was 2610 µM; with OSI-027, more than 20 µM. Besides, the IC50 was more than 10 µM with Vismodegib, 4.29 µM with VX-11e, more than 10.2 µM in the test with TG101348 and more than 1 µM with UNC1215.

EVSA-T (breast, adherent): the AUC with BMX-IN-1 (QL-XII-61) is 0.882; in the test with 17-AAG, 0.436; with CCT018159 it was 0.916; in the test with BIX02189 it was 0.96; with Dimethyloxalylglycine it was 0.847; with OSI-027, 0.7. The AUC in the test with Vismodegib was 0.991; in the test with VX-11e, 0.955; with TG101348, 0.897; with UNC1215 it was 0.991. The IC50 is 7.98 µM with BMX-IN-1 (QL-XII-61); 0.0429 µM with 17-AAG; more than 10 µM with CCT018159; more than 20 µM with BIX02189; 2330 µM with Dimethyloxalylglycine; 4.13 µM with OSI-027. Besides, the IC50 in the test with Vismodegib was more than 10 µM; in the test with VX-11e, more than 5.12 µM; in the test with TG101348, 9.54 µM; in the test with UNC1215 it was more than 1 µM.

For the cell line SK-LMS-1 (soft tissue, adherent), the AUC was determined as 0.964 with BMX-IN-1 (QL-XII-61); 0.839 with 17-AAG; 0.845 with CCT018159; 0.948 in the test with BIX02189; 0.406 with Dimethyloxalylglycine; 0.268 with OSI-027. Also, the AUC came to 0.98 with Vismodegib, 0.897 with VX-11e, 0.902 with TG101348 and 0.986 in the test with UNC1215. The IC50 is more than 10 µM in the test with BMX-IN-1 (QL-XII-61); 0.634 µM with 17-AAG; 6.72 µM with CCT018159; more than 20 µM with BIX02189; 140 µM in the test with Dimethyloxalylglycine; 0.285 µM with OSI-027. Moreover, the half-maximal inhibitory concentration (IC50) was more than 10 µM with Vismodegib, more than 5.12 µM with VX-11e, more than 10.2 µM in the test with TG101348 and more than 1 µM with UNC1215.

As to NCI-H630 (large intestine, adherent), the AUC is 0.976 with BMX-IN-1 (QL-XII-61); 0.951 in the test with 17-AAG; 0.979 in the test with CCT018159; 0.962 in the test with BIX02189; 0.808 in the test with Dimethyloxalylglycine; 0.871 with OSI-027. Further, the AUC with Vismodegib turned out to be 0.974; in the test with VX-11e, 0.877; with TG101348, 0.942; with UNC1215 it was 0.986. Also, the IC50 was more than 10 µM in the test with BMX-IN-1 (QL-XII-61); more than 1 µM with 17-AAG; more than 10 µM with CCT018159; more than 20 µM with BIX02189; 2260 µM in the test with Dimethyloxalylglycine; more than 20 µM with OSI-027. In addition, the IC50 in the test with Vismodegib was more than 10 µM; in the test with VX-11e it was more than 5.12 µM; with TG101348, more than 10.2 µM; in the test with UNC1215, more than 1 µM.
